# Values joined by “and” are separate entries in the source; they are usually repeats but may differ in a detail not shown here. Equal values may be shown once. The campaign covered roughly 340,000 compounds. About 12,000 (3.5%) were called active. The shares of active, inactive and inconclusive entries below differ from those in the screen. Calls come from the whole dose curve; as a rule, active = well fitted inhibition curve with a large enough effect; inconclusive = small, poorly fitted or top-dose-only effect, or another doubt; inactive = no such curve, though single readings can be large or run the other way. Where the call is inconclusive, the potency comes from a doubtful curve fit.
# Test: qHTS Assay for Inhibitors of Hepatitis C Virus (HCV)
# Conditions: Huh7.5.1 HCVcc-Cre (HCVcc is cell-culture hepatitis C virus) infection, luciferase reporter, 44 h; activity change, negative = inhibition: at 41.8 µM (top of the series) unless noted
# In short: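 A cell-based infection assay in which seeded cells (1,000 per well) receive test compound after 4 h, are inoculated with HCVcc-Cre at approximately 0.5 moi, and are incubated 44 h before luminescence detection.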
# % is set by controls: 0 for no effect and ±100 for the full control effect; potency is the fitted concentration of half-maximal effect; tags give direction and shape of the fitted curve.
SMILES,Potency,"activity change, negative = inhibition"
Cc1nn(Cc2ccc(F)cc2)c2sc(C(=O)Nc3ccccc3N3CCOCC3)cc12,"inconclusive: 31.6 µM [inhibitor, single point]",
COc1cccc(-c2ccc(C#N)c(OC(=O)c3c(Cl)cccc3Cl)n2)c1,"inconclusive: 8.91 µM [inhibitor, partial curve]",
O=C(NCCCl)C1Cc2c(ccc3ccccc23)O1 (configuration not stated),,inactive: 18.8%
O=C(N/N=C/c1c[nH]c2ccccc12)c1ccccc1Cl,"inconclusive: 5.62 µM [inhibitor, single point]",
CC(=O)Nc1sc2c(c1C(N)=O)CCN(Cc1ccccc1)C2,,inactive: 0.0998%
CCN(CC(=O)Nc1ccc(NC(C)=O)cc1)C(=O)CSC(c1ccccc1)c1ccccc1,active: 10 µM,
Cc1cc(C)c2ccc(C(=O)O)nc2c1O,,inactive: 10%
O=C(Nc1ccccc1-c1ccccc1)NC1CC2CCCC(C1)N2Cc1ccc(F)cc1 (configuration not stated),"inconclusive: 11.2 µM [inhibitor, partial curve]",
Cc1ccc(C(=O)NN2C(=O)/C(=C/c3cccn3C)SC2=S)cc1,"inconclusive: 3.16 µM [inhibitor, single point]",
O=c1c2cc(Cl)ccc2[nH]c(=S)n1Cc1ccccn1,,inactive: -27.2%
COc1ccc2cc1Oc1ccc(cc1)C[C@H]1c3cc(c(OC)cc3CCN1C)Oc1c(O)c(OC)cc3c1[C@H](C2)N(C)CC3,"inconclusive: 7.08 µM [inhibitor, partial curve]",
COc1ccc(S(=O)(=O)N2CCCC(C(=O)N3CCN(c4ccccc4)CC3)C2)cc1Cl (configuration not stated),"inconclusive: 10 µM [inhibitor, partial curve]",
COc1ccccc1N1CCN(C(=O)C(Sc2ccccc2)c2ccccc2)CC1 (configuration not stated),active: 11.2 µM,
O=C(/C=C/c1cc([N+](=O)[O-])ccc1OC(F)F)NCc1ccc(Cl)cc1,"inconclusive: 31.6 µM [inhibitor, single point]",
O=C(Nc1ccn(Cc2ccccc2F)n1)c1ccc(COc2cccc(Br)c2)cc1,"inconclusive: 15.8 µM [inhibitor, single point]",
O=C(COc1cc(F)ccc1[N+](=O)[O-])NCCCc1ccccc1,"inconclusive: 10 µM [inhibitor, partial curve, poor fit]",
CCC(=O)N(Cc1ccco1)c1nc(C(=O)Nc2ccc(Cl)cc2)c(C)s1,"inconclusive: 31.6 µM [inhibitor, single point]",
CCOc1ccc(NC(=O)c2cc(S(=O)(=O)N3CCOCC3)cs2)cc1,"inconclusive: 11.2 µM [inhibitor, partial curve]",
Fc1ccc(-c2csc(NC(=S)Nc3ccccc3)n2)cc1,"inconclusive: 11.2 µM [inhibitor, partial curve]",
O=C(N/N=C/c1ccccc1)c1ccc(CN2C(=O)c3cccc4cccc2c34)cc1,"inconclusive: 8.91 µM [inhibitor, partial curve]",
CCCCCc1nc2c(c(=O)c3ccccc3n2C)c(=O)n1C1CCCCCC1,"inconclusive: 12.6 µM [inhibitor, partial curve]",
COc1ccc(C(=O)NC(=S)NCc2ccccc2)cc1,,inactive: 20.6%
CCCCn1c(N)c(N(CCOC)C(=O)c2ccc(C)c(S(=O)(=O)N3CCCCC3)c2)c(=O)[nH]c1=O,"inconclusive: 3.55 µM [inhibitor, single point]",
COC(=O)c1cc(CNC(=O)c2ccc(S(=O)(=O)N(C)c3ccccc3)cc2)ccc1OC,active: 3.98 µM,

SMILES,Potency,"activity change, negative = inhibition"
O=C(Cc1ccc(Cl)cc1)Nc1ccc(-c2nnc(-c3ccco3)o2)cc1,"inconclusive: 15.8 µM [inhibitor, single point]",
Clc1ccc(-n2nnnc2-c2cnc(-c3ccncc3)nc2-c2cccs2)cc1,active: 22.4 µM,
COc1ccc(OC)c(NC(=O)Cc2coc3ccc(C)cc23)c1,"inconclusive: 3.55 µM [inhibitor, partial curve, poor fit]",
Cc1cc(SCC(=O)c2ccccc2)nc(=O)[nH]1,,inactive: 8.26%
CCc1cccc(C)c1NC(=O)CSc1nnc(C)o1,,inactive: 9.14%
O=C(NCc1ccco1)Nc1ccc(OC(F)(F)F)cc1,,inactive: -15.6%
COc1ccc(Nc2nc(-c3ccccc3F)nc3ccccc23)cc1OC,active: 25.1 µM,
CCCCOc1ccc(CSC2=NCCN2)cc1[N+](=O)[O-],"inconclusive: 4.47 µM [inhibitor, full curve]",
Cc1ccc(OC(=O)c2cc3ccccc3o2)cc1,,inactive: 4.88%
C=CCn1c(SCC(=O)/C(C#N)=C(\C)N)nc2sc(CC)cc2c1=O,"inconclusive: 17.8 µM [inhibitor, partial curve] and inconclusive: 31.6 µM [inhibitor, single point]",
CC1=NN(c2ccccc2)C(=O)/C1=C\c1ccc(Oc2ccc([N+](=O)[O-])cc2[N+](=O)[O-])cc1,,inactive: -25.2%
CCCC(CCC)n1[nH]c(=O)c2c(C)cc(C)nc21,,inactive: 3.31%
CCOc1cc(/C=N/NC(=O)NN(C)c2ncc(C(F)(F)F)cc2Cl)ccc1O,"inconclusive: 12.6 µM [inhibitor, single point]",
Cc1ccc(C)c(OC(=O)c2cccnc2)c1,,inactive: 10.7%
COc1ccc(C(=O)CSc2nnc3ccc(-c4ccccn4)nn23)cc1,,inactive: 11.9%
CC(=O)c1ccc(CCCC(=O)O)cc1,,inactive: 1.57%
O=C(CSc1nnc(-c2ccccc2)c(-c2ccccc2)n1)NCc1ccco1,"inconclusive: 22.4 µM [inhibitor, single point]",
CCOc1cc(N2CCOCC2)c(OCC)cc1NC(=O)CN1CCCC(C)C1 (configuration not stated),"inconclusive: 31.6 µM [inhibitor, single point]",
c1ccc(Oc2cccc(OCCCCN3CCCC3)c2)cc1,active: 10 µM,
CCOc1ccccc1N1CCN(C(=O)c2ccc3[nH]c4c(c3c2)CCCC4)CC1,"inconclusive: 31.6 µM [inhibitor, single point]",
COc1ccc(S(=O)(=O)Cc2ccc(C(=O)NCCCN3CCc4ccccc4C3)o2)cc1,,inactive: -15.1%
Cc1ccc(CNC(=O)c2ccc(Cn3cc(-c4ccc(C)cc4)nc3-c3ccncc3)cc2)cc1,"inconclusive: 11.2 µM [inhibitor, single point]",
COc1ccc(C(=O)Nc2ccc(-c3cn4ccsc4n3)cc2)cc1S(=O)(=O)N1CCOCC1,,inactive: -18.2%
CC(=O)Nc1ccc(OC(=O)CC2SC(=O)NC2=O)cc1 (configuration not stated),,inactive: 18.3%

SMILES,Potency,"activity change, negative = inhibition"
COc1cc(/C=C2\C=CC(=O)O2)cc(OC)c1,"inconclusive: 6.31 µM [inhibitor, partial curve]",
NC(=O)CC(NC(=O)Cc1ccc(Br)cc1)c1ccc(NCc2ccc(F)c(F)c2)c([N+](=O)[O-])c1 (configuration not stated),"inconclusive: 6.31 µM [inhibitor, full curve]",
CCOc1ccc(NC(=O)CN(C)C(=O)c2ccccc2OCc2c(C)noc2C)cc1OCC,"inconclusive: 10 µM [inhibitor, partial curve]",
Cc1ccc(-c2cc(C(=O)Nc3cccnc3)c3ccccc3n2)o1,,inactive: 6.11%
O=C(CCc1nc2sc3c(c2c(=O)[nH]1)CCCC3)NCCc1ccc(F)cc1,,inactive: -29.7%
CCc1nc2c(cnn2-c2ccc(Cl)cc2)c(=O)n1-c1ccc(OC)cc1,active: 11.2 µM,
CC12CCC(c3nnc(SCC(=O)Nc4cccc5ccccc45)nc31)C2(C)C (configuration not stated),,inactive: -10.1%
OC(CN1CCN(c2ccc(F)cc2)CC1)c1ccc(Cl)cc1 (configuration not stated),,inactive: -6.25%
COc1ccc(NC(=O)c2ccc3c(c2)CCN3S(=O)(=O)c2ccccc2)cc1,"inconclusive: 10 µM [inhibitor, partial curve]",
NS(=O)(=O)c1ccc(CCNC(=O)Cc2ccc(S(=O)(=O)N3CCOCC3)s2)cc1,,inactive: -6.67%
O=S1(=O)N[C@@H](Cc2ccccc2)COc2cc(Br)ccc21,"inconclusive: 25.1 µM [inhibitor, single point]",
O=C(NCc1ccccc1)C(c1ccccc1)N(C(=O)c1csnn1)c1ccccc1 (configuration not stated),,inactive: -9.11%
Cc1cccn2c(=O)c(C(=O)NC3CC(C)CC(C)(C)C3)c(O)nc12 (configuration not stated),"inconclusive: 5.62 µM [inhibitor, full curve]",
CCOc1cc(N2CCOCC2)c(OCC)cc1NC(=O)COC(=O)c1ccccc1OC(F)F,"inconclusive: 3.16 µM [inhibitor, single point]",
Cc1ccc(-n2nnnc2SCc2nnc(-c3ccccc3Br)o2)cc1,"inconclusive: 31.6 µM [inhibitor, single point]",
CCOC(=O)/C(C#N)=C/Nc1cc(C(=O)OCC)cc2c(OC)c(OC)ccc12,"inconclusive: 0.501 µM [inhibitor, full curve, poor fit]",
c1cc(C2CCN(Cc3nc(-c4ccc5c(c4)OCO5)no3)CC2)ccn1,"inconclusive: 22.4 µM [inhibitor, single point]",
Cc1scc(C(=O)NCc2ccco2)c1-c1ccccc1,,inactive: 3.16%
Cc1cc(C)cc(NS(=O)(=O)c2ccc(F)cc2)c1,"inconclusive: 31.6 µM [inhibitor, single point]",
COc1cccc(OC)c1OCC(=O)Nc1ccc(S(=O)(=O)N2CCCC2)cc1,active: 8.91 µM,
Cc1cc(N2CCN(c3nc(-c4ccc([N+](=O)[O-])cc4)cs3)CC2)c2ccccc2n1,active: 6.31 µM,
CCOC(=O)C1CCN(S(=O)(=O)c2ccc3c(c2)NC(=O)C(C)S3)CC1 (configuration not stated),"inconclusive: 12.6 µM [inhibitor, single point]",
CCCN(CCC)c1ncnc2c1cnn2-c1ccc(OC)cc1,"inconclusive: 10 µM [inhibitor, partial curve]",
O=C(NCc1ccc(Cl)cc1)C(=O)NCC1OCCN1S(=O)(=O)c1cc(F)ccc1F (configuration not stated),"inconclusive: 31.6 µM [inhibitor, single point]",

# — PubChem BioAssay AID651820 (National Center for Advancing Translational Sciences (NCATS), 2012)
